# Assay results from the supplement of paper PMC8728848.
# Some of the results follow.
# Key:
# Test in all cases: glycan array binding signal (z-score within array); higher = stronger binding
# Details in all cases: glycan notation: IUPAC condensed, linker removed
# Man(b1-4)GlcNAc = target: Man(b1-4)GlcNAc
# How it was run: (§1)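 The binding signal is a Z-score computed within each array. Data were drawn from 3228 arrays in the Consortium for Functional Glycomics database, restricted to those with a known protein sequence. Scores were averaged over arrays of the same protein sequence at different concentrations or buffers, and over linkers, and negative values can be taken as non-binding.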
# Neu5Ac(a2-3)Gal = target: Neu5Ac(a2-3)Gal
# How it was run: as §1
# [1] = target: Neu5Ac(a2-3)Gal(b1-3)GalNAc
# How it was run: as §1
# [2] = target: Neu5Ac(a2-3)Gal(b1-3)GalNAc(b1-3)Gal(a1-4)Gal(b1-4)Glc
# How it was run: as §1
# [3] = target: Neu5Ac(a2-3)Gal(b1-3)GalNAc(b1-3)Gal(b1-4)GlcNAc
# How it was run: as §1
# [4] = target: Neu5Ac(a2-3)Gal(b1-3)GalNAc(b1-4)[Neu5Ac(a2-3)]Gal(b1-4)Glc
# How it was run: as §1
# [5] = target: Neu5Ac(a2-3)Gal(b1-3)GalNAc(b1-4)[Neu5Ac(a2-8)Neu5Ac(a2-3)]Gal(b1-4)Glc
# How it was run: as §1
# [6] = target: Neu5Ac(a2-3)Gal(b1-3)GalNAc6S
# How it was run: as §1
# [7] = target: Neu5Ac(a2-3)Gal(b1-3)GlcNAc
# How it was run: as §1
# [8] = target: Neu5Ac(a2-3)Gal(b1-3)GlcNAc(b1-3)Gal(b1-3)GlcNAc
# How it was run: as §1
# [9] = target: Neu5Ac(a2-3)Gal(b1-3)GlcNAc(b1-3)Gal(b1-4)GlcNAc
# How it was run: as §1
# [10] = target: Neu5Ac(a2-3)Gal(b1-3)GlcNAc(b1-3)GalNAc
# How it was run: as §1
# [11] = target: Neu5Ac(a2-3)Gal(b1-3)GlcNAc6S
# How it was run: as §1
# [12] = target: Neu5Ac(a2-3)Gal(b1-3)[Fuc(a1-4)]GlcNAc
# How it was run: as §1
# [13] = target: Neu5Ac(a2-3)Gal(b1-3)[Fuc(a1-4)]GlcNAc(b1-3)Gal(b1-3)[Fuc(a1-4)]GlcNAc
# How it was run: as §1
# [14] = target: Neu5Ac(a2-3)Gal(b1-3)[Fuc(a1-4)]GlcNAc(b1-3)Gal(b1-4)[Fuc(a1-3)]GlcNAc
# How it was run: as §1
# [15] = target: Neu5Ac(a2-3)Gal(b1-3)[Neu5Ac(a2-3)Gal(b1-4)]GlcNAc
# How it was run: as §1
# [16] = target: Neu5Ac(a2-3)Gal(b1-3)[Neu5Ac(a2-6)]GalNAc
# How it was run: as §1
# Neu5Ac(a2-3)Gal(b1-4)Glc = target: Neu5Ac(a2-3)Gal(b1-4)Glc
# How it was run: as §1
# [17] = target: Neu5Ac(a2-3)Gal(b1-4)GlcNAc
# How it was run: as §1
# [18] = target: Neu5Ac(a2-3)Gal(b1-4)GlcNAc(b1-2)Man(a1-3)[GlcNAc(b1-2)Man(b1-4)GlcNAc(b1-2)Man(a1-6)]Man(b1-4)GlcNAc(b1-4)GlcNAc
# How it was run: as §1
# [19] = target: Neu5Ac(a2-3)Gal(b1-4)GlcNAc(b1-2)Man(a1-3)[Neu5Ac(a2-6)Gal(b1-4)GlcNAc(b1-2)Man(a1-6)]Man(b1-4)GlcNAc(b1-4)GlcNAc
# How it was run: as §1
# [20] = target: Neu5Ac(a2-3)Gal(b1-4)GlcNAc(b1-3)Gal
# How it was run: as §1
# [21] = target: Neu5Ac(a2-3)Gal(b1-4)GlcNAc(b1-3)Gal(b1-3)GlcNAc
# How it was run: as §1
# [22] = target: Neu5Ac(a2-3)Gal(b1-4)GlcNAc(b1-3)Gal(b1-4)GlcNAc
# How it was run: as §1
# [23] = target: Neu5Ac(a2-3)Gal(b1-4)GlcNAc(b1-3)Gal(b1-4)GlcNAc(b1-3)Gal(b1-4)GlcNAc
# How it was run: as §1
# [24] = target: Neu5Ac(a2-3)Gal(b1-4)GlcNAc(b1-3)Gal(b1-4)[Fuc(a1-3)]GlcNAc
# How it was run: as §1
# [25] = target: Neu5Ac(a2-3)Gal(b1-4)GlcNAc(b1-3)GalNAc
# How it was run: as §1
# [26] = target: Neu5Ac(a2-3)Gal(b1-4)GlcNAc(b1-6)[Gal(b1-3)]GalNAc
# How it was run: as §1
# [27] = target: Neu5Ac(a2-3)Gal(b1-4)GlcNAc(b1-6)[Neu5Ac(a2-3)Gal(b1-3)]GalNAc
# How it was run: as §1
# [28] = target: Neu5Ac(a2-3)Gal(b1-4)GlcNAc6S
# How it was run: as §1
# [29] = target: Neu5Ac(a2-3)Gal(b1-4)[Fuc(a1-3)]GlcNAc
# How it was run: as §1
# [30] = target: Neu5Ac(a2-3)Gal(b1-4)[Fuc(a1-3)]GlcNAc(b1-3)Gal
# How it was run: as §1
# [31] = target: Neu5Ac(a2-3)Gal(b1-4)[Fuc(a1-3)]GlcNAc(b1-3)Gal(b1-4)GlcNAc
# How it was run: as §1
# [32] = target: Neu5Ac(a2-3)Gal(b1-4)[Fuc(a1-3)]GlcNAc(b1-3)Gal(b1-4)[Fuc(a1-3)]GlcNAc(b1-3)Gal(b1-4)[Fuc(a1-3)]GlcNAc
# How it was run: as §1
# [33] = target: Neu5Ac(a2-3)Gal(b1-4)[Fuc(a1-3)]GlcNAc(b1-3)GalNAc
# How it was run: as §1
# [34] = target: Neu5Ac(a2-3)Gal(b1-4)[Fuc(a1-3)]GlcNAc(b1-6)[Gal(b1-3)]GalNAc
# How it was run: as §1
# [35] = target: Neu5Ac(a2-3)Gal(b1-4)[Fuc(a1-3)]GlcNAc(b1-6)[Neu5Ac(a2-3)Gal(b1-3)]GalNAc
# How it was run: as §1
# [36] = target: Neu5Ac(a2-3)Gal(b1-4)[Fuc(a1-3)]GlcNAc6S
# How it was run: as §1
# [37] = target: Neu5Ac(a2-3)Gal6S(b1-4)GlcNAc
# How it was run: as §1
# [38] = target: Neu5Ac(a2-3)Gal6S(b1-4)[Fuc(a1-3)]GlcNAc
# How it was run: as §1
# Neu5Ac(a2-3)GalNAc = target: Neu5Ac(a2-3)GalNAc
# How it was run: as §1
# [39] = target: Neu5Ac(a2-3)GalNAc(b1-4)GlcNAc
# How it was run: as §1
# [40] = target: Neu5Ac(a2-3)[GalNAc(b1-4)]Gal(b1-4)Glc
# How it was run: as §1
# [41] = target: Neu5Ac(a2-3)[GalNAc(b1-4)]Gal(b1-4)GlcNAc
# How it was run: as §1
binder,measurement,setting,value
"BC2L-D C-terminal domain (Burkholderia cenocepacia), Q39MQ9_BURS3 (protein) LVIVDAVTLLSAYPEASRDPAAPTVIDGRHLYVVSPGDAAQLGHNDSRLFTGLSPGDQLHLRETALALRAEVSVLFIRFALKDAGIVAPIELEVRDAATAVPDADDLLHPSCRPLKDHYWRSDVLAAGATTCTADFAVCDRDGTVSGYFRWETSIEIAGSQPDTKQPGFKPSSDRNGNFSLPPNTAFKAIFYANAADRQDLKLFIDDAPEPAATFVGNSEDGVRLFTLNSKGGKIRIEASANGRQSATDARLAPLSAGDTVWLGWLGAEDGADADYNDGIVILQWPIT",glycan array binding signal (z-score),Man(b1-4)GlcNAc,-0.244
same,glycan array binding signal (z-score),Neu5Ac(a2-3)Gal,-0.245
same,glycan array binding signal (z-score),[1],-0.242
same,glycan array binding signal (z-score),[2],-0.239
same,glycan array binding signal (z-score),[3],-0.297
same,glycan array binding signal (z-score),[4],-0.239
same,glycan array binding signal (z-score),[5],-0.154
same,glycan array binding signal (z-score),[6],-0.248
same,glycan array binding signal (z-score),[7],-0.243
same,glycan array binding signal (z-score),[8],-0.233
same,glycan array binding signal (z-score),[9],-0.164
same,glycan array binding signal (z-score),[10],-0.161
same,glycan array binding signal (z-score),[11],-0.243
same,glycan array binding signal (z-score),[12],0.051
same,glycan array binding signal (z-score),[13],0.899
same,glycan array binding signal (z-score),[14],0.621
same,glycan array binding signal (z-score),[15],-0.242
same,glycan array binding signal (z-score),[16],-0.197
same,glycan array binding signal (z-score),Neu5Ac(a2-3)Gal(b1-4)Glc,-0.248
same,glycan array binding signal (z-score),[17],-0.242
same,glycan array binding signal (z-score),[18],-0.245
same,glycan array binding signal (z-score),[19],-0.238
same,glycan array binding signal (z-score),[20],-0.158
same,glycan array binding signal (z-score),[21],-0.246
same,glycan array binding signal (z-score),[22],-0.242
same,glycan array binding signal (z-score),[23],-0.244
same,glycan array binding signal (z-score),[24],-0.241
same,glycan array binding signal (z-score),[25],-0.242
same,glycan array binding signal (z-score),[26],-0.243
same,glycan array binding signal (z-score),[27],-0.244
same,glycan array binding signal (z-score),[28],-0.244
same,glycan array binding signal (z-score),[29],-0.215
same,glycan array binding signal (z-score),[30],-0.22
same,glycan array binding signal (z-score),[31],-0.172
same,glycan array binding signal (z-score),[32],0.036
same,glycan array binding signal (z-score),[33],-0.175
same,glycan array binding signal (z-score),[34],-0.232
same,glycan array binding signal (z-score),[35],-0.251
same,glycan array binding signal (z-score),[36],-0.244
same,glycan array binding signal (z-score),[37],-0.241
same,glycan array binding signal (z-score),[38],-0.242
same,glycan array binding signal (z-score),Neu5Ac(a2-3)GalNAc,-0.243
same,glycan array binding signal (z-score),[39],-0.246
same,glycan array binding signal (z-score),[40],-0.243
same,glycan array binding signal (z-score),[41],-0.233
